Data published in the RNAGym collection of RNA variant scans (doi:10.1101/gad.245936.114).
Variants at the background level are over-represented here.

B1: tRNA (parent)
chain: CUCUCGGUAGCCAAGUUGGUUUAAGGCGCAAGACUUUAAUUUAUCACUACGAAAUCUUGAGAUCGGGCGUUCGACUCGCCCCCGGGAGAUUUUUUCCUCGAGCAA

Variants of: B1
Test: nonsense suppression (GFP-seq) (ratio to wild type); higher = more function; SUP4oc tRNA, yeast GFP reporter sort-seq
Summary of the method: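 Nonsense suppression (GFPSEQ) is the median GFP/RFP ratio of each sorting bin, weighted by the variant's estimated share of cells in that bin and expressed relative to the unmutated parent tRNA. Yeast strains carried genome-integrated variants of an ochre-suppressor tRNA from a library with ~3% random mutations, plus a galactose-driven GFP ochre reporter and RFP, and were grown in raffinose/galactose medium containing 80 mg/L adenine. Cells were sorted into GFP/RFP bins, each bin was Illumina-sequenced (phred ≥30), and variants were kept only with ≥100 reads and ≥30 cells.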

Variant	nonsense suppression
A13C A14U	0.206
A13C A14U U16G	≤ 0.026
A13C A23C A60C C82G	≤ 0.026
A13C A23G C29U C83G	≤ 0.026
A13C A23U A30G	≤ 0.026
A13C A24U C27G A33G U70C C80U G86U G88U	≤ 0.026
A13C A31C U76A	≤ 0.026
A13C A31U G61C	≤ 0.026
A13C A33U	0.0508
A13C A33U C82G	≤ 0.026
A13C A54C C75G G88C	≤ 0.026
A13C A54G G73C	≤ 0.026
A13C A54G U70G	≤ 0.026
A13C A60G A62U	≤ 0.026
A13C A60U	1.07
A13C A87G	0.127
A13C A87U	≤ 0.026
A13C C27A G61C C75G	≤ 0.026
A13C C27G	≤ 0.026
A13C C27G C77G	≤ 0.026
A13C C27G G78U	≤ 0.026
A13C C27G U55A C81G	≤ 0.026
A13C C27G U57A G84U	≤ 0.026
A13C C29A A33C G88U	≤ 0.026

Variant	nonsense suppression
A13C C29A C68U	≤ 0.026
A13C C29G A31U G67U	≤ 0.026
A13C C29U A62C	≤ 0.026
A13C C29U G88U	≤ 0.026
A13C C34U	≤ 0.026
A13C C64U	0.0428
A13C C68G G88A	≤ 0.026
A13C C72U C81U	≤ 0.026
A13C C75A	1.09
A13C C75G	1.15
A13C C81G	≤ 0.026
A13C G15A U70C	≤ 0.026
A13C G15U A74G	≤ 0.026
A13C G15U C64U	≤ 0.026
A13C G18C G26U	≤ 0.026
A13C G18C G26U G61C	≤ 0.026
A13C G18U C81A	≤ 0.026
A13C G18U G61C	≤ 0.026
A13C G19C	≤ 0.026
A13C G25A	0.0288
A13C G25C A54C	≤ 0.026
A13C G26C A30U	≤ 0.026
A13C G26C G78U	≤ 0.026
A13C G26C U57A	≤ 0.026

Variant	nonsense suppression
A13C G26U A89U	≤ 0.026
A13C G26U C29A	≤ 0.026
A13C G32C U71G A74C C75A	≤ 0.026
A13C G32U A62G G69C C72A	≤ 0.026
A13C G59C	≤ 0.026
A13C G59U	≤ 0.026
A13C G61A	0.852
A13C G65C G66A A74C C75G	≤ 0.026
A13C G65U G78C	≤ 0.026
A13C G67A A74C	≤ 0.026
A13C G67U C77A	≤ 0.026
A13C G69C G85A A89U	≤ 0.026
A13C G78C G88A	≤ 0.026
A13C G84A	0.175
A13C G84C	0.0388
A13C G88A	0.0766
A13C U16A	1.17
A13C U16A U58G	≤ 0.026
A13C U16C	1.12
A13C U17A A31G A89U	≤ 0.026
A13C U17C G26C A31U U71A C77G	≤ 0.026
A13C U17C G69C G84A	≤ 0.026
A13C U17G C82U	0.142
A13C U20A C27A C29G	≤ 0.026

Variant	nonsense suppression
A13C U35A	≤ 0.026
A13C U35G U57C	≤ 0.026
A13C U55A	≤ 0.026
A13C U55A C80G	≤ 0.026
A13C U63A A89G	≤ 0.026
A13C U63A A89U	≤ 0.026
A13C U63C C81G	≤ 0.026
A13C U70C G73C	≤ 0.026
A13C U71C G84A	≤ 0.026
A13C U71G	≤ 0.026
A13G	0.191
A13G A14C U20C C27G U55C A60G	≤ 0.026
A13G A14G U71G	≤ 0.026
A13G A14U A24U G66A	≤ 0.026
A13G A14U G15C U20G G32C C82G G86A	≤ 0.026
A13G A23G G67U	≤ 0.026
A13G A23U C27G	≤ 0.026
A13G A30C	≤ 0.026
A13G A30C U55C G65A	≤ 0.026
A13G A30C U55C U76G	≤ 0.026
A13G A30G A62C U70C	≤ 0.026
A13G A31G	0.149
A13G A33U	≤ 0.026
A13G C29G G61U U70G	≤ 0.026

Variant	nonsense suppression
A13G C29U G32A G66A C83G	≤ 0.026
A13G C29U G88C	≤ 0.026
A13G C29U U58G C82G A87U	≤ 0.026
A13G C34U U58A G78U	≤ 0.026
A13G C56A	≤ 0.026
A13G C68A C81A	≤ 0.026
A13G C68U	0.146
A13G C72G	≤ 0.026
A13G C75A	0.71
A13G C80U	0.0419
A13G G15U A31U	≤ 0.026
A13G G15U G67U	≤ 0.026
A13G G15U U16G U35A G73U	≤ 0.026
A13G G15U U20A G67C	≤ 0.026
A13G G15U U55C U63A A74U	≤ 0.026
A13G G18A G19U U71G A87U	≤ 0.026
A13G G18C	≤ 0.026
A13G G18C G61A	≤ 0.026
A13G G19A C68U	≤ 0.026
A13G G19C A24G	≤ 0.026
A13G G19C A54U	≤ 0.026
A13G G19C G86U	≤ 0.026
A13G G19C U57G	≤ 0.026
A13G G25A G26C	≤ 0.026

Variant	nonsense suppression
A13G G26A	≤ 0.026
A13G G26A U76C	≤ 0.026
A13G G28A A33C C77A	≤ 0.026
A13G G32A	≤ 0.026
A13G G32A U35G	≤ 0.026
A13G G32U G59C C64U G88C	≤ 0.026
A13G G59C A60U U71A	≤ 0.026
A13G G59C A60U U71A G88U	≤ 0.026
A13G G59U	≤ 0.026
A13G G61C	0.0301
A13G G65A	≤ 0.026
A13G G65U G67C C81G	≤ 0.026
A13G G67U G86C	≤ 0.026
A13G G67U U70A C72G	≤ 0.026
A13G G69C C75G G86A	≤ 0.026
A13G G78U	≤ 0.026
A13G G84C	≤ 0.026
A13G G85A	0.214
A13G G85C	≤ 0.026
A13G G88A	≤ 0.026
A13G G88C	≤ 0.026
A13G G88U	≤ 0.026
A13G U16A	0.0391
A13G U17A A24U	≤ 0.026

Variant	nonsense suppression
A13G U17A A24U A31U G61U	≤ 0.026
A13G U17A U35G	≤ 0.026
A13G U17C A33G G73U C81G	≤ 0.026
A13G U20A	0.0339
A13G U20A U21A A23G C27G	≤ 0.026
A13G U20A U58A G61U A74C U76C	≤ 0.026
A13G U20C C56G U57A A60G	≤ 0.026
A13G U20C G84A G86A	≤ 0.026
A13G U20G A24G	≤ 0.026
A13G U21G A60G U71G	≤ 0.026
A13G U21G C77G	≤ 0.026
A13G U22A G67C U71A C82A	≤ 0.026
A13G U22G U58G G88A	≤ 0.026
A13G U22G U70G	≤ 0.026
A13G U35C U71C	≤ 0.026
A13G U55C G88U	≤ 0.026
A13G U57G	≤ 0.026
A13G U58A	≤ 0.026
A13G U70A G84C	≤ 0.026
A13U	1.03
A13U A14C U20C A24U C79U	≤ 0.026
A13U A14C U35A A60C C72U	≤ 0.026
A13U A14G A24C G32C	≤ 0.026
